Assay results from the supplement of paper PMC8728848.
The other results are listed elsewhere or left out.

Tests used:
Experiment in all cases: glycan array binding signal (z-score within array); higher = stronger binding
Conditions in all cases: glycan notation: IUPAC condensed, linker removed
[1] = molecular target: Gal(b1-4)GlcNAc(b1-3)[GlcNAc(b1-6)]Gal(b1-4)GlcNAc
In short: (§1)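 The binding signal is a Z-score computed within each array. Data were drawn from 3228 arrays in the Consortium for Functional Glycomics database, restricted to those with a known protein sequence. Scores were averaged over arrays of the same protein sequence at different concentrations or buffers, and over linkers, and negative values can be taken as non-binding.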

[2] = molecular target: Gal(b1-4)GlcNAc(b1-6)Gal(b1-4)GlcNAc
In short: as §1

[3] = molecular target: Gal(b1-4)GlcNAc(b1-6)Gal(b1-4)GlcNAc(b1-6)GalNAc
In short: as §1

[4] = molecular target: Gal(b1-4)GlcNAc(b1-6)GalNAc
In short: as §1

[5] = molecular target: Gal(b1-4)GlcNAc(b1-6)[Gal(b1-3)]GalNAc
In short: as §1

Gal3S(b1-3)GalNAc = molecular target: Gal3S(b1-3)GalNAc
In short: as §1

Gal3S(b1-3)GlcNAc = molecular target: Gal3S(b1-3)GlcNAc
In short: as §1

[6] = molecular target: Gal3S(b1-3)[Fuc(a1-4)]GlcNAc
In short: as §1

Gal3S(b1-4)Glc = molecular target: Gal3S(b1-4)Glc
In short: as §1

Gal3S(b1-4)Glc6S = molecular target: Gal3S(b1-4)Glc6S
In short: as §1

Gal3S(b1-4)GlcNAc = molecular target: Gal3S(b1-4)GlcNAc
In short: as §1

Gal3S(b1-4)GlcNAc6S = molecular target: Gal3S(b1-4)GlcNAc6S
In short: as §1

[7] = molecular target: Gal3S(b1-4)[Fuc(a1-3)]Glc
In short: as §1

Gal3S4S(b1-4)GlcNAc = molecular target: Gal3S4S(b1-4)GlcNAc
In short: as §1

Gal3S6S(b1-4)GlcNAc = molecular target: Gal3S6S(b1-4)GlcNAc
In short: as §1

Gal3S6S(b1-4)GlcNAc6S = molecular target: Gal3S6S(b1-4)GlcNAc6S
In short: as §1

Gal4S(b1-4)GlcNAc = molecular target: Gal4S(b1-4)GlcNAc
In short: as §1

Gal4S6S(b1-4)GlcNAc = molecular target: Gal4S6S(b1-4)GlcNAc
In short: as §1

Gal6S(b1-4)Glc = molecular target: Gal6S(b1-4)Glc
In short: as §1

Gal6S(b1-4)Glc6S = molecular target: Gal6S(b1-4)Glc6S
In short: as §1

Gal6S(b1-4)GlcNAc = molecular target: Gal6S(b1-4)GlcNAc
In short: as §1

Gal6S(b1-4)GlcNAc6S = molecular target: Gal6S(b1-4)GlcNAc6S
In short: as §1

GalNAc(a1-3)Gal = molecular target: GalNAc(a1-3)Gal
In short: as §1

GalNAc(a1-3)GalNAc = molecular target: GalNAc(a1-3)GalNAc
In short: as §1

GalNAc(b1-3)Gal = molecular target: GalNAc(b1-3)Gal
In short: as §1

[8] = molecular target: GalNAc(b1-3)Gal(a1-4)Gal(b1-4)GlcNAc
In short: as §1

[9] = molecular target: GalNAc(b1-3)Gal(a1-4)Gal(b1-4)GlcNAc(b1-3)Gal(b1-4)Glc
In short: as §1

GalNAc(b1-3)GalNAc = molecular target: GalNAc(b1-3)GalNAc
In short: as §1

GalNAc(b1-4)GlcNAc = molecular target: GalNAc(b1-4)GlcNAc
In short: as §1

[10] = molecular target: GalNAc(b1-4)GlcNAc(b1-2)Man(a1-3)[GalNAc(b1-4)GlcNAc(b1-2)Man(a1-6)]Man(b1-4)GlcNAc(b1-4)GlcNAc
In short: as §1

Glc(a1-4)Glc = molecular target: Glc(a1-4)Glc
In short: as §1

Glc(a1-6)Glc(a1-6)Glc = molecular target: Glc(a1-6)Glc(a1-6)Glc
In short: as §1

Glc(b1-4)Glc = molecular target: Glc(b1-4)Glc
In short: as §1

Glc(b1-6)Glc = molecular target: Glc(b1-6)Glc
In short: as §1

GlcA(b1-3)Gal = molecular target: GlcA(b1-3)Gal
In short: as §1

GlcA(b1-3)GlcNAc = molecular target: GlcA(b1-3)GlcNAc
In short: as §1

GlcA(b1-6)Gal = molecular target: GlcA(b1-6)Gal
In short: as §1

[11] = molecular target: GlcNAc(a1-3)Gal(b1-4)GlcNAc
In short: as §1

[12] = molecular target: GlcNAc(a1-4)Gal(b1-3)GlcNAc
In short: as §1

[13] = molecular target: GlcNAc(a1-4)Gal(b1-4)GalNAc
In short: as §1

[14] = molecular target: GlcNAc(a1-4)Gal(b1-4)GlcNAc
In short: as §1

[15] = molecular target: GlcNAc(a1-4)Gal(b1-4)GlcNAc(b1-3)Gal(b1-4)Glc
In short: as §1

[16] = molecular target: GlcNAc(a1-4)Gal(b1-4)GlcNAc(b1-3)Gal(b1-4)GlcNAc
In short: as §1

[17] = molecular target: GlcNAc(a1-4)Gal(b1-4)GlcNAc(b1-3)Gal(b1-4)GlcNAc(b1-3)Gal(b1-4)GlcNAc
In short: as §1

[18] = molecular target: GlcNAc(a1-4)Gal(b1-4)GlcNAc(b1-3)Gal(b1-4)[Fuc(a1-3)]GlcNAc(b1-3)Gal(b1-4)[Fuc(a1-3)]GlcNAc
In short: as §1

[19] = molecular target: GlcNAc(a1-6)Gal(b1-4)GlcNAc
In short: as §1

[20] = molecular target: GlcNAc(b1-2)Gal(b1-3)GalNAc
In short: as §1

[21] = molecular target: GlcNAc(b1-2)Man(a1-3)[GlcNAc(b1-2)Man(a1-6)]Man(b1-4)GlcNAc(b1-4)GlcNAc
In short: as §1

[22] = molecular target: GlcNAc(b1-2)Man(a1-3)[GlcNAc(b1-2)Man(a1-6)]Man(b1-4)GlcNAc(b1-4)[Fuc(a1-6)]GlcNAc
In short: as §1

GlcNAc(b1-3)Gal = molecular target: GlcNAc(b1-3)Gal
In short: as §1

[23] = molecular target: GlcNAc(b1-3)Gal(b1-3)GalNAc
In short: as §1

GlcNAc(b1-3)Gal(b1-4)Glc = molecular target: GlcNAc(b1-3)Gal(b1-4)Glc
In short: as §1

[24] = molecular target: GlcNAc(b1-3)Gal(b1-4)GlcNAc
In short: as §1

[25] = molecular target: GlcNAc(b1-3)Gal(b1-4)GlcNAc(b1-3)Gal(b1-4)GlcNAc
In short: as §1

GlcNAc(b1-3)GalNAc = molecular target: GlcNAc(b1-3)GalNAc
In short: as §1

GlcNAc(b1-3)Man = molecular target: GlcNAc(b1-3)Man
In short: as §1

[26] = molecular target: GlcNAc(b1-3)[GlcNAc(b1-4)][GlcNAc(b1-6)]GlcNAc
In short: as §1

[27] = molecular target: GlcNAc(b1-3)[GlcNAc(b1-6)]Gal(b1-4)GlcNAc
In short: as §1

[28] = molecular target: GlcNAc(b1-3)[GlcNAc(b1-6)]GalNAc
In short: as §1

[29] = molecular target: GlcNAc(b1-4)Gal(b1-4)GlcNAc
In short: as §1

B1: GALT1 115 D492A (Arabidopsis thaliana), Q8L7F9 (protein)
chain: DPMRGSHHHHHHGMASMTGGQQMGRDLYDDDDKSRLQKPYITAAASVVVTPNTTLPMEWLRITLPDFMKEARNTQEAISGDDIAVVSGLFVEQNVSKEEREPLLTWNRLESLVDNAQSLVNGVDAIKEAGIVWESLVSAVEAKKLVDVNENQTRKGKEELCPQFLSKMNATEADGSSLKLQIPCGLTQGSSITVIGIPDGLVGSFRIDLTGQPLPGEPDPPIIVHYNVRLLGDKSTEDPVIVQNSWTASQDWGAEERCPKFDPDMNKKVDDLDECNKMVGGEINRTSSTSLQSNTSRGVPVAREASKHEKYFPFKQGFLSVATLRVGTEGMQMTVDGKHITSFAFRDTLEPWLVSEIRITGDFRLISILASGLPTSEESEHVVDLEALKSPTLSPLRPLDLVIGVFSTANNFKRRMAVRRTWMQYDDVRSGRVAVRFFVGLHKSPLVNLELWNEARTYGDVQLMPFVDYYSLISWKTLAICIFGTEVDSAKFIMKTDDAAFVRVDEVLLSLSMTNNTRGLIYGLINSDSQPIRNPDSKWYISYEEWPEEKYPPWAHGPGYIVSRDIAESVGKLFKEGNLKMFKLEDVAMGIWIAELTKHGLEPHYENDGRIISDGCKDGYVVAHYQSPAEMTCLWRKYQETKRSLCCREW
With B1 the “glycan array binding signal (z-score)” value [1] was -0.25, the “glycan array binding signal (z-score)” value [2] was -0.226 and the “glycan array binding signal (z-score)” value [3] was 0.674. The “glycan array binding signal (z-score)” value [4] was -0.406, the “glycan array binding signal (z-score)” value [5] was -0.027 and the “glycan array binding signal (z-score)” value (Gal3S(b1-3)GalNAc) was 0.318. The “glycan array binding signal (z-score)” value (Gal3S(b1-3)GlcNAc) was -0.028, the “glycan array binding signal (z-score)” value [6] was -0.223 and the “glycan array binding signal (z-score)” value (Gal3S(b1-4)Glc) was -0.314. For the same binder, the “glycan array binding signal (z-score)” value (Gal3S(b1-4)Glc6S) was -0.095, the “glycan array binding signal (z-score)” value (Gal3S(b1-4)GlcNAc) was -0.298 and the “glycan array binding signal (z-score)” value (Gal3S(b1-4)GlcNAc6S) was -0.147. For the same binder, the “glycan array binding signal (z-score)” value [7] was -0.291, the “glycan array binding signal (z-score)” value (Gal3S4S(b1-4)GlcNAc) was 0.069 and the “glycan array binding signal (z-score)” value (Gal3S6S(b1-4)GlcNAc) was -0.392. For the same binder, the “glycan array binding signal (z-score)” value (Gal3S6S(b1-4)GlcNAc6S) was -0.432, the “glycan array binding signal (z-score)” value (Gal4S(b1-4)GlcNAc) was 0.055 and the “glycan array binding signal (z-score)” value (Gal4S6S(b1-4)GlcNAc) was -0.157. The “glycan array binding signal (z-score)” value (Gal6S(b1-4)Glc) was -0.222, the “glycan array binding signal (z-score)” value (Gal6S(b1-4)Glc6S) was 0.389 and the “glycan array binding signal (z-score)” value (Gal6S(b1-4)GlcNAc) was 0.652. For the same binder, the “glycan array binding signal (z-score)” value (Gal6S(b1-4)GlcNAc6S) was 0.326, the “glycan array binding signal (z-score)” value (GalNAc(a1-3)Gal) was -0.316 and the “glycan array binding signal (z-score)” value (GalNAc(a1-3)GalNAc) was -0.368. For the same binder, the “glycan array binding signal (z-score)” value (GalNAc(b1-3)Gal) was -0.147, the “glycan array binding signal (z-score)” value [8] was -0.135 and the “glycan array binding signal (z-score)” value [9] was 0.091. The “glycan array binding signal (z-score)” value (GalNAc(b1-3)GalNAc) was -0.181, the “glycan array binding signal (z-score)” value (GalNAc(b1-4)GlcNAc) was -0.261 and the “glycan array binding signal (z-score)” value [10] was -0.095. For the same binder, the “glycan array binding signal (z-score)” value (Glc(a1-4)Glc) was 1.21, the “glycan array binding signal (z-score)” value (Glc(a1-6)Glc(a1-6)Glc) was -0.335 and the “glycan array binding signal (z-score)” value (Glc(b1-4)Glc) was -0.085. The “glycan array binding signal (z-score)” value (Glc(b1-6)Glc) was -0.244, the “glycan array binding signal (z-score)” value (GlcA(b1-3)Gal) was -0.053 and the “glycan array binding signal (z-score)” value (GlcA(b1-3)GlcNAc) was -0.206. The “glycan array binding signal (z-score)” value (GlcA(b1-6)Gal) was -0.271, the “glycan array binding signal (z-score)” value [11] was 0.007 and the “glycan array binding signal (z-score)” value [12] was 0.356. The “glycan array binding signal (z-score)” value [13] was 0.654, the “glycan array binding signal (z-score)” value [14] was -0.069 and the “glycan array binding signal (z-score)” value [15] was 0.145. The “glycan array binding signal (z-score)” value [16] was 0.061, the “glycan array binding signal (z-score)” value [17] was -0.503 and the “glycan array binding signal (z-score)” value [18] was 2.05. The “glycan array binding signal (z-score)” value [19] was -0.292, the “glycan array binding signal (z-score)” value [20] was -0.037 and the “glycan array binding signal (z-score)” value [21] was -0.23. The “glycan array binding signal (z-score)” value [22] was 2.9, the “glycan array binding signal (z-score)” value (GlcNAc(b1-3)Gal) was -0.543 and the “glycan array binding signal (z-score)” value [23] was 1.5. For the same binder, the “glycan array binding signal (z-score)” value (GlcNAc(b1-3)Gal(b1-4)Glc) was -0.095, the “glycan array binding signal (z-score)” value [24] was -0.176 and the “glycan array binding signal (z-score)” value [25] was -0.165. For the same binder, the “glycan array binding signal (z-score)” value (GlcNAc(b1-3)GalNAc) was 0.045, the “glycan array binding signal (z-score)” value (GlcNAc(b1-3)Man) was -0.193 and the “glycan array binding signal (z-score)” value [26] was -0.397. For the same binder, the “glycan array binding signal (z-score)” value [27] was 0.997, the “glycan array binding signal (z-score)” value [28] was 0.43 and the “glycan array binding signal (z-score)” value [29] was -0.482.
